# Data reported in the supplement of paper PMC3334620.
# Over roughly 33,000 sequences, “E-score (-0.5 to 0.5)” has its median near -0.011; the highest 2% begin near 0.28. This is one part of the list.
# Target: T1, Gcr1 (UniProt P07261)
# T1 sequence: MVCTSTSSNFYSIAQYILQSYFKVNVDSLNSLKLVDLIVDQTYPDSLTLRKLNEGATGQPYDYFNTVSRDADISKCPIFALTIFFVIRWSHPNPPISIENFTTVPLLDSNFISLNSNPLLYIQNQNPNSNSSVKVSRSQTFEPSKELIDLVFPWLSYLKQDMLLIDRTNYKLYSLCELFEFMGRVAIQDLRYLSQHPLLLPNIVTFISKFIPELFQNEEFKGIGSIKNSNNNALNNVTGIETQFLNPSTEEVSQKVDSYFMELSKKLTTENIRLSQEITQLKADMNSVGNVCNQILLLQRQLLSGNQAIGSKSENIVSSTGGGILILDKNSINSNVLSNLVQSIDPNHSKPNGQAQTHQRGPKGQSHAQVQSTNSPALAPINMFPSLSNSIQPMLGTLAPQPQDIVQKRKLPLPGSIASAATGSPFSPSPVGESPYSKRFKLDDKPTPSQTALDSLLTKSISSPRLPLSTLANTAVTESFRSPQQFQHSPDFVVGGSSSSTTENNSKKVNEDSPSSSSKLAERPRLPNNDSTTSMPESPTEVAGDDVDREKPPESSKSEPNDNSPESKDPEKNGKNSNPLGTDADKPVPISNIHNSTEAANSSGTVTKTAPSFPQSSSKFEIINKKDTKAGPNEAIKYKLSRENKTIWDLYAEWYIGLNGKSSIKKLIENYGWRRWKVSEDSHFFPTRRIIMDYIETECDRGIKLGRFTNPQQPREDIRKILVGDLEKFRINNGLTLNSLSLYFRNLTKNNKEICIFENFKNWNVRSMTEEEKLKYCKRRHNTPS
# Experiment: PBM E-score (8-mer binding enrichment) (E-score (-0.5 to 0.5)); higher = stronger / more preferred TF binding; most listed sequences are background and not binding sites
# Settings: protein concentration: 100 nM; construct: GST-full length
# How it was run: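 Yeast transcription factors carrying a GST tag, as full-length proteins or DNA-binding domains, were produced by PURExpress in vitro transcription/translation. About 100-200 nM protein was applied to universal all-10-mer Agilent arrays, double-stranded by primer extension on fresh or once-stripped slides. Bound protein was detected with fluorescent anti-GST, and scans were normalised with masliner. The Universal PBM Analysis Suite gave each ungapped eight-base word, pooled with its reverse complement, an E-score, a modified Wilcoxon-Mann-Whitney statistic.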
row,Sequence,PBM E-score
1,AAGGTCAC,-0.25
2,CCTGCTGA,0.104
3,CCCCTCTA,-0.104
4,TCAGAAAA,-0.105
5,GAGCAAGC,-0.213
6,AACTACAG,0.0331
7,ACTTCTTC,0.168
8,AGGGGGAA,0.0613
9,AATCTAGT,0.161
10,CGCTTGAC,0.0373
11,GACCCTAA,-0.0305
12,GAGTTTAA,-0.00268
13,CGTATTAC,-0.034
14,CGGATGAC,0.0341
15,CTCTGAAC,-0.0346
16,CGCATTGA,-0.0263
17,ATTCAGGG,0.123
18,CTAGCCTC,0.00493
19,GAATTGAA,-0.0437
20,ACCAGTGA,0.0553
21,CAGCGGCA,-0.0336
22,GCGTATCA,0.0787
23,AAGTCCAC,-0.163
24,ACTGAGCG,-0.0503
25,GGCGTGAA,-0.0836

row,Sequence,PBM E-score
1,CCACTGTA,0.163
2,AATCGGAC,0.0387
3,GGCTACAA,0.253
4,ACGAATGA,0.0208
5,ACGACGTG,-0.117
6,CACACTAG,-0.116
7,TGACAGCA,-0.0525
8,CGACTTGA,-0.0147
9,GCGGCATA,-0.0216
10,AACTCCTC,-0.106
11,ATGGAGCA,-0.0672
12,GCCCTACC,0.0531
13,CCGCCGTC,-0.124
14,GCCTACCC,-0.199
15,ATCGGAAA,0.0318
16,GTTCAAGA,-0.0251
17,ATGGTGGG,0.0037
18,CGCGCAGA,-0.0847
19,AGGACATC,0.00599
20,CAGGCGAG,-0.149
21,TACTTACA,-0.00444
22,TAATGAAA,0.227
23,AACCTTAG,0.0219
24,TGTGCTAA,0.0627
25,GGACTTTA,-0.117

row,Sequence,PBM E-score
1,AACTCTCG,-0.17
2,TCGTGAAA,0.166
3,TAAATACA,0.161
4,GGACCCGA,0.045
5,GTGACAAA,-0.0825
6,ATGGTGCC,0.227
7,AGCAGGGG,0.00965
8,CGGCAGAC,-0.254
9,AGCGGTTG,0.107
10,ACCAACGG,-0.0789
11,AAATAATA,0.122
12,AACGTGCT,-0.00283
13,GCACCCGA,0.25
14,AGACTTAT,-0.267
15,CAGTTATG,0.123
16,AGGCGTCG,-0.0284
17,CCCCGCCA,-0.017
18,AGTATGCG,0.104
19,GAACTCAA,0.0766
20,CTGTGCTC,-0.0397
21,CACAGTCC,-0.216
22,AATTCAGC,0.03
23,ATCCTGGC,0.0795
24,AGCACGAC,-0.0361
25,AATTTTGT,0.109

row,Sequence,PBM E-score
1,GCACTAAC,-0.0146
2,GAAAGGGA,-0.00796
3,AGCGGCTG,0.0579
4,AACAATCT,0.0862
5,TGACATAA,0.0198
6,AAGGTAAA,0.0141
7,CGCGTCGC,-0.148
8,ACCATTAT,0.0956
9,AATGCGAG,0.0217
10,GCACCTAA,0.212
11,AGTCGGTG,-0.206
12,CACGATGG,-0.22
13,AGAAGTGG,0.243
14,TATTAACA,0.11
15,TAAACGAA,0.0477
16,AGATGACC,-0.193
17,CTTAACCA,-0.112
18,ATGAAGGC,0.0308
19,CGCCCTCA,-0.104
20,CGCAAGCA,-0.101
21,ACATGTAT,-0.0992
22,GGACTAGA,0.0871
23,ACGCGAAT,0.108
24,AACATAGA,0.0879
25,CATGTGAC,-0.11

row,Sequence,PBM E-score
1,AACTTCTT,0.163
2,ACCGCAGG,-0.0609
3,CGTGCGAA,0.152
4,GCCTTCGC,-0.11
5,AGGGCGAT,-0.293
6,CCATATCC,-0.179
7,AGCAGACT,0.0173
8,ACCCGGCG,0.151
9,TATATACA,0.0077
10,CAAGGCAA,-0.269
11,GGTACGTA,-0.0286
12,ACCCAAAA,0.184
13,GAATTTAC,-0.0208
14,ACAATGAC,-0.131
15,CGCCTGAA,0.143
16,AGGGGGTG,-0.271
17,ATAGGTCA,-0.0137
18,ACATACGT,0.0187
19,CACACCCC,-0.137
20,CTATTTCC,-0.00725
21,CAGACTGA,-0.157
22,GCTCGAGC,0.321
23,AATAACTG,0.181
24,GACAAGGC,-0.252
25,ACGGGAAA,0.0869

row,Sequence,PBM E-score
1,ACAGGCTG,-0.0906
2,AATCACAG,-0.0603
3,CAATTACG,-0.0206
4,CTGAAACC,0.0577
5,AAACAAAT,-0.135
6,GCAAAACC,-0.116
7,AACCACCC,0.0809
8,ACTGATCC,-0.0723
9,GACTATAA,0.0534
10,AAAACGGT,-0.0493
11,GCCCAGCC,-0.225
12,ATTTTGAC,-0.0399
13,CTACCGAC,-0.0695
14,CGTCCCGA,-0.0204
15,CAGAACGG,0.0548
16,ACACGTAT,0.0678
17,CCCTAGAA,0.0917
18,ACGCCGCG,0.157
19,TACGCGGA,-0.0111
20,AACTGCTT,0.0237
21,CGGAAATA,0.182
22,ATTGGTTA,0.0401
23,AATAGCCC,-0.144
24,ACGATCAC,-0.178
25,ATGCTGGC,-0.019

row,Sequence,PBM E-score
1,AAGTACCT,0.12
2,CGAAATTC,0.127
3,CCCGAACA,-0.00034
4,GGTTGCAA,0.0837
5,AGAATGTA,-0.0524
6,CTGCTTTC,0.0643
7,ATGGACAC,-0.13
8,AAGTAAAT,0.0668
9,AGCAAGAG,-0.0351
10,ACGCCGGC,0.0311
11,GCATATGC,-0.0738
12,AGGTAGCG,0.157
13,TACACATA,-0.056
14,AGGGCTGA,-0.242
15,ACTGAACA,0.0177
16,GAGGATAA,0.0272
17,GAAAAGAA,0.0753
18,AGCTGTGC,-0.276
19,AAGCATGC,-0.205
20,CAGGATGC,0.446
21,CGGTAGCA,-0.0732
22,ACGCGGCA,0.112
23,AGGGCCGA,-0.281
24,TCTGCAGA,-0.194
25,TCTACGAA,0.0885

row,Sequence,PBM E-score
1,GTATTTAA,0.117
2,CGACTAAG,-0.294
3,GGCACACC,-0.0829
4,ATTTTCCC,-0.0691
5,AGTGGGAG,0.256
6,AGTGTCGC,-0.00959
7,ACAACCTG,0.0338
8,ATAGATAT,-0.0152
9,ATACACCA,0.014
10,GCCTCGAC,-0.213
11,ACGTAAGG,-0.279
12,CTCGTACC,0.105
13,CCATACTA,0.0399
14,AGATCTAG,-0.103
15,AGCATACT,-0.0455
16,ATTTGATA,-0.0185
17,ACCGTAGC,-0.097
18,GTGTCCAA,0.0511
19,GTAATTAC,0.064
20,GCGGGTGA,-0.181
21,GTTTTAAA,0.0194
22,CAGAAGCG,0.223
23,CGTGCGGC,-0.106
24,GGAGAATA,-0.0709
25,ACCTCATG,-0.107

row,Sequence,PBM E-score
1,GCCGCAGC,0.0591
2,CTGTTATC,0.0231
3,ACGCTGGA,0.0355
4,CAGGGAGG,-0.257
5,CCACGACA,-0.258
6,TAGTTGCA,0.00472
7,GATATTTA,0.0473
8,CGTCAACC,-0.199
9,ACGGACGC,0.14
10,GTTGGCCA,-0.246
11,GAACGAGA,-0.0744
12,ACCGCGCA,-0.136
13,CAACGCGA,-0.104
14,ATTCGGTC,-0.026
15,GAGACAGA,-0.0415
16,CCACTACG,0.323
17,GGTGGGCA,0.0687
18,AAACGTCA,-0.0971
19,TTTACAAA,0.15
